# Experimental data from PubChem BioAssay AID1347071 (National Center for Advancing Translational Sciences (NCATS), 2019).
# Out of some 410,000 compounds screened, about 260 (0.063%) were called active. The shares of active, inactive and inconclusive entries below differ from those in the screen. Calls follow the shape of the dose curve; as a rule, active = well fitted activation curve with a large enough effect; inconclusive = small, poorly fitted or top-dose-only effect; inactive = no such curve, though single readings can be large or run the other way. Potencies of inconclusive entries are left out as doubtful fits.
# Experiment: qHTS for compounds that reverse cellular toxicity of Amyloid beta (A-beta) peptide in yeast: Primary Screen; also: nearly all actives have a fitted effect of over 55% in size
# Settings: yeast expressing A-beta42, growth rescue, OD600, 48 h; growth rescue: at 46.1 µM (top of the series), 0% DMSO, 100% iron-clioquinol control
# Method in brief: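 Yeast A-beta toxicity model in growth medium with pinned compounds, 48 h at 30 C; growth read as absorbance at 600 nm. Normalized to FeCl3/clioquinol equimolar mix (positive) and DMSO (negative).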
# Potency is read from the fitted curve at half-maximal effect; tags tell the direction and shape of the fitted curve.
SMILES,growth rescue,Potency
COC1=C(Nc2ccc(OC)cc2)C(=O)C(OC)=C(Nc2ccc(OC)cc2)C1=O,inactive: 14.4%,–
Cc1ccc(S(=O)(=O)N2CCCC(C)C2)cc1 (stereo not given),inactive: -1.08%,–
CC1C(=O)C(C)C(c2cc(Cl)ccc2O)NC1c1cc(Cl)ccc1O (stereo not given),–,"inconclusive [activator, partial curve, poor fit]"
CC(C)(C)C(=O)Nc1nnc(CCc2ccccc2)s1,–,"inconclusive [activator, single point]"
COc1c(C)cccc1C(=O)Nc1ccc(N2CCOCC2)c(Cl)c1,–,"inconclusive [activator, partial curve]"
COc1ccc(-n2c(C)c(C(C)=O)c3cc(OC(=O)c4ccc(C)cc4)ccc32)cc1,inactive: -4.7%,–
Cc1cc(C)cc(NC(=O)C(Nc2ccccc2)c2ccccc2)c1 (stereo not given),–,"inconclusive [activator, partial curve, poor fit]"
CC(C(=O)N1CCOCC1)N1c2cccc3cccc(c23)S1(=O)=O (stereo not given),–,"inconclusive [activator, partial curve, poor fit]"
CC1CCN(C(=O)COC(=O)/C=C/c2ccc(Br)o2)CC1,–,"inconclusive [activator, partial curve]"
CCCOc1ccc(C2Nc3cccc4cccc(c34)N2)cc1,–,"inconclusive [activator, partial curve]"
Cc1cc(C(=O)CN2CCC(C)CC2)c(C)n1-c1ccccc1F,–,"inconclusive [activator, full curve]"
Cc1ccc(NC(=O)CSc2n[nH]c(-c3ccc(F)cc3)n2)cc1F,inactive: -15.6%,–
COc1ccc(C(=O)OCCN2C(=O)c3ccccc3C2=O)cc1,inactive: -60.2%,–
CCOC(=O)c1c(NC(=O)COC(=O)C2CCC2)sc(C(=O)N(C)C)c1C,–,"inconclusive [activator, partial curve, poor fit]"
CCN(C(=O)c1ccc2c(c1)N(Cc1cccc(Cl)c1)C(=O)c1ccccc1S2=O)c1ccccc1 (stereo not given),inactive: -57.2%,–
CN(C)S(=O)(=O)c1ccc(NC(=O)COC(=O)CC2CC3CCC2C3)cc1 (stereo not given),–,"inconclusive [activator, single point]"
CCC(=O)N1c2ccc(S(=O)(=O)NCCc3ccc(C)cc3)cc2CC1C (stereo not given),–,"inconclusive [activator, single point]"
Cc1cc(-c2n[nH]c(=S)n2-c2ccccc2C)cs1,–,"inconclusive [activator, partial curve]"
Cc1ccc2c(c1)[C@H]1[C@H](CO2)[C@H](c2ccccc2)[C@]2(C)C(=O)N(Cc3ccc(F)cc3)CC(=O)N12,–,active: 15.8 µM
Cc1ccc(NS(=O)(=O)c2c(C)[nH]c(C)c2C(=O)N2CCCCC2)cc1F,–,"inconclusive [activator, partial curve, poor fit]"
O=C(c1ccc(F)cc1)C1CCN(C(=O)c2c(F)cccc2F)CC1,–,"inconclusive [activator, partial curve]"
COc1ccccc1N1CCN(S(=O)(=O)c2ccc3[nH]c4c(c3c2)CCCC4)CC1,–,"inconclusive [activator, single point]"

SMILES,growth rescue,Potency
O=C(NC1CCc2ccccc21)c1cc(COc2ccc(F)cc2F)on1 (stereo not given),–,"inconclusive [activator, full curve]"
Cc1cc(C)n(C(=O)/C(C#N)=N\Nc2ccccc2[N+](=O)[O-])n1,–,"inconclusive [activator, single point]"
CCN(C(=O)COC(=O)c1c(C)nn(-c2ccccc2)c1C)C1CCS(=O)(=O)C1 (stereo not given),inactive: -11.7%,–
Cc1ccccc1C(=O)NNC(=S)NC(=O)c1cccs1,inactive: -40.6%,–
Cc1ccnc(SCc2cc(=O)c(OC(=O)c3ccccc3)co2)n1,–,"inconclusive [activator, partial curve, poor fit]"
CCOC(=O)c1ccc(NC(=S)NNC(C)(C)C)cc1,–,"inconclusive [activator, partial curve]"
COCCCn1c(C(=O)N2CC(C)OC(C)C2)cc2c(=O)n3cccc(C)c3nc21 (stereo not given),inactive: -24.5%,–
OC(c1cccc(Cl)c1)c1nc(-c2cccc3cccnc23)cs1 (stereo not given),–,"inconclusive [activator, partial curve, poor fit]"
COc1ccc(S(=O)(=O)Nc2cccc3c2O[C@H](CN(C)S(=O)(=O)c2ccc(F)cc2)[C@H](C)CN([C@H](C)CO)C3=O)cc1,inactive: -9.45%,–
CCOC(=O)c1cccc(NC(=O)Cn2ncc3c4ccccc4n(Cc4ccccc4)c3c2=O)c1,inactive: -5.97%,–
Cn1nc(-c2ccccc2)cc1NC(=O)c1ccccc1,–,"inconclusive [activator, partial curve]"
S=C1Cc2ccccc2C(c2ccc(Cl)cc2)N1 (stereo not given),–,"inconclusive [activator, full curve, poor fit]"
Fc1ccc(-c2cc3nc4c(c(N5CCOCC5)n3n2)CCCC4)cc1,inactive: -83.5%,–
Cc1ccc(SCC(=O)Nc2cccnc2)cc1,–,"inconclusive [activator, full curve]"
Cc1ccc(N2C(=O)C3ON(c4ccccc4)C(c4ccncc4)C3C2=O)c(C)c1 (stereo not given),–,"inconclusive [activator, full curve]"
Cc1nc2ccc([N+](=O)[O-])cc2c(=O)n1Cc1cccc(Br)c1,–,"inconclusive [activator, partial curve]"
O=C(CCN1CCOCC1)Nc1ccc(F)cc1,–,"inconclusive [activator, single point]"
COc1cc(NC(=O)Cc2cccs2)cc(OC)c1,–,"inconclusive [activator, single point]"
COc1ccc(S(=O)(=O)Cc2ccc(C(=O)N3CCN(c4cccc(C)c4)C(C)C3)o2)cc1 (stereo not given),inactive: -0.232%,–
Cc1ccc(C)c(NC(=S)N/N=C2\CCc3ccccc32)c1,–,"inconclusive [activator, full curve, poor fit]"
Oc1ccc(Br)cc1/C=N/NC(=S)NCCc1ccccc1,–,"inconclusive [activator, single point]"
CC[C@H]1C(c2ccc(F)cc2)=NN(c2ccccc2)[C@@H]1CO,–,"inconclusive [activator, single point]"

SMILES,growth rescue,Potency
Nc1nc2n(n1)C(c1ccccc1Cl)CC(c1ccc(F)cc1)N2 (stereo not given),–,"inconclusive [activator, partial curve, poor fit]"
Cc1ccc(C2CC(=O)Oc3cc(C)c(Br)c(C)c32)cc1 (stereo not given),–,"inconclusive [activator, single point]"
O=C(c1sc2ccccc2c1Cl)N(Cc1ccccc1Cl)C1CCS(=O)(=O)C1 (stereo not given),–,"inconclusive [activator, full curve]"
CC1(C)c2[nH]c3ccccc3c2C[C@H]2C(=O)N(Cc3ccccc3)C(=O)N21,–,"inconclusive [activator, partial curve]"
O[C@@H]1CN(CC2CCCCC2)[C@@H](c2ccc(Cl)cc2)C[C@H]1n1cc(-c2ccc(F)cc2)nn1,–,"inconclusive [activator, partial curve, poor fit]"
O=C(CN1CCN(C(=O)C2COc3ccccc3O2)CC1)Nc1ccc(F)cc1 (stereo not given),–,"inconclusive [activator, partial curve, poor fit]"
COc1ccccc1N1CCN(C(=O)COc2cc(C)cc3oc(=O)cc(C)c23)CC1,inactive: 2.96%,–
CCOC(=O)CNC(=O)CSc1ncnc2c1cnn2-c1ccc(Cl)cc1,–,"inconclusive [activator, partial curve]"
CCc1ccc(NC(=S)N2CCCC(C(F)(F)F)C2)cc1 (stereo not given),–,"inconclusive [activator, partial curve, poor fit]"
COc1ccc(Cl)cc1NC(=O)CN1C(=O)COc2ccc(S(=O)(=O)NC3CCCC3)cc21,inactive: -0.804%,–
CCN(CC)P(=O)(Nc1cccc(C(F)(F)F)c1)c1ccc(N(C)C)cc1NC(=O)c1ccco1 (stereo not given),–,"inconclusive [activator, partial curve, poor fit]"
CC1=C(C#N)C(c2cn(-c3ccccc3)nc2-c2cccs2)C(C#N)=C(C)N1,inactive: -13.8%,–
CCCCCCCC(=O)NC1=NC(=O)C(C)(C)S1,–,"inconclusive [activator, single point]"
Cc1ccc(C)c(N2CCN(C(=O)c3csc(C)c3C)CC2)c1,–,"inconclusive [activator, single point]"
COCCN1C(=O)c2[nH]nc(-c3cc(C)ccc3O)c2C1c1ccc(C(C)C)cc1 (stereo not given),–,"inconclusive [activator, single point]"
COc1ccccc1NS(=O)(=O)c1cccc(C(=O)N/N=C(\C)c2ccc3c(c2)OCCO3)c1,–,"inconclusive [activator, partial curve]"
N#Cc1ccc(C(=O)NC(=S)NC2CCCCC2)cc1,–,"inconclusive [activator, full curve]"
S=C(c1ccc(-c2ccc(Br)cc2)o1)N1CCCCC1,–,"inconclusive [activator, single point]"
Cc1ccccc1C(=O)NC(=S)Nc1ccccc1N1CCCC1,–,"inconclusive [activator, partial curve, poor fit]"
Cc1ccc(NC(=O)CN(C)C(=O)Cc2ccc3c(c2)CCC3)cc1,–,"inconclusive [activator, partial curve, poor fit]"
COc1ccc(NS(=O)(=O)c2ccc(OC)c(N(C)S(=O)(=O)c3ccc(Cl)cc3)c2)cc1,inactive: -14.1%,–
